Results reported in PubChem BioAssay AID504339 (National Center for Advancing Translational Sciences (NCATS), 2011).
The whole screen tested about 390,000 compounds, of which about 17,000 (4.4%) were called active. This list was built around the results that the source calls inconclusive (neither active nor inactive); the mix of calls is not that of the screen. Calls come from the whole dose curve; as a rule, active = well fitted inhibition curve with a large enough effect; inconclusive = small, poorly fitted or top-dose-only effect; inactive = no such curve, though single readings can be large or run the other way. Potencies beside an inconclusive call are fits to weak or partial responses and may not hold up.

These compounds were tested against Lysine-specific demethylase 4A (Homo sapiens) (UniProt O75164) (assay: qHTS Assay for Inhibitors of JMJD2A-Tudor Domain). Conditions: AlphaScreen JMJD2A-Tudor / H3K4me3 peptide binding; activity change, negative = inhibition: at 114 µM (top of the series).
% is set by controls: 0 for no effect and ±100 for the full control effect; potency is the fitted concentration of half-maximal effect; tags give direction and shape of the fitted curve.
Note: nearly all actives have a fitted effect of over 50% in size.

Chain of UniProt O75164 (O75164 whole entry, looked up, the tested form may be a part): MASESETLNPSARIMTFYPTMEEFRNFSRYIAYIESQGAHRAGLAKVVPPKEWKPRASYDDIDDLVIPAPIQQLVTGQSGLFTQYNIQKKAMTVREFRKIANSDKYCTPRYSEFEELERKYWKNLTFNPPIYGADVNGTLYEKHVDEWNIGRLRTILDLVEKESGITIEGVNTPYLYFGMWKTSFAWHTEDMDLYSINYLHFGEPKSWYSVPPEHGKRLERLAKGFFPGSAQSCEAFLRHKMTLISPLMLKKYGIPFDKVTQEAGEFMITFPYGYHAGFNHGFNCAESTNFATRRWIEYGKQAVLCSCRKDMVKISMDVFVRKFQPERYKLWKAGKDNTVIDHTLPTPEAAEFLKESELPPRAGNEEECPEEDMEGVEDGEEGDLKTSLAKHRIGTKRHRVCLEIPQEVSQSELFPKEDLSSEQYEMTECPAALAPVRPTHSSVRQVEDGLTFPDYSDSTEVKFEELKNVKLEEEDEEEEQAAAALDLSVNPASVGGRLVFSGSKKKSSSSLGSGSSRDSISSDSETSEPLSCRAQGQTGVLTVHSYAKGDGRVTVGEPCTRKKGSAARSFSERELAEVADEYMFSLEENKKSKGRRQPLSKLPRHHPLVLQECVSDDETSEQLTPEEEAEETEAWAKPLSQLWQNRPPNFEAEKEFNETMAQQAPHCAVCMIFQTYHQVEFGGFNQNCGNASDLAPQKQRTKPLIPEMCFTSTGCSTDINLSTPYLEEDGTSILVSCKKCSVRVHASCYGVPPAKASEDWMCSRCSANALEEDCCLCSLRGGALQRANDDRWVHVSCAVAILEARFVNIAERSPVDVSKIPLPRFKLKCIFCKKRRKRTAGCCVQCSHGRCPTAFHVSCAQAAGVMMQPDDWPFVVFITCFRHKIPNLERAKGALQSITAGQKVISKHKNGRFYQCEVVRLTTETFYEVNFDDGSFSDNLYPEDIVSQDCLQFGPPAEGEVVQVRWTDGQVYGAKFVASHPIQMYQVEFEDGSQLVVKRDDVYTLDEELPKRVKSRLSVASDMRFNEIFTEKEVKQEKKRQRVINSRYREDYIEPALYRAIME

Potency, inconclusive:
C[n+]1c(/C=C/c2ccc3c(c2)OCO3)ccc2ccccc21 39.8 µM [inhibitor, single point], CC(=O)N1CCN(c2ccc(NCc3ccc4c(c3)OCO4)cc2)CC1 56.2 µM [inhibitor, partial curve], COc1ccc(CC(C)N2CCN(Cc3ccccc3)CC2)c(OC)c1 (stereo not given) 79.4 µM [inhibitor, partial curve], Cn1c(O)c(N=NC(=O)C2COc3ccccc3O2)c2ccccc21 (stereo not given) 22.4 µM [inhibitor, full curve], CC1(C)Oc2ccc3ccc(=O)oc3c2-c2cnoc21 8.91 µM [inhibitor, partial curve], CSc1nnc(-c2ccccc2N=Cc2c(C)[nH]n(-c3ccc4ccccc4c3)c2=O)c(=O)[nH]1 39.8 µM [inhibitor, partial curve, poor fit], CN(C)CCCN(C(=O)c1ccc(S(=O)(=O)N(C)C2CCCCC2)cc1)c1nc2ccc(F)cc2s1 31.6 µM [inhibitor, partial curve], O=C(Nc1nnc(S(=O)(=O)Nc2ccccc2)s1)C1CCCCC1 14.1 µM [inhibitor, full curve, poor fit], CCOC(=O)c1ccc(N2C(=O)c3n[nH]c(C)c3C2c2ccc(OCC)cc2)cc1 (stereo not given) 44.7 µM [inhibitor, partial curve, poor fit], Cc1ccccc1N(C)S(=O)(=O)c1nnc(NC(=O)C(C)C)s1 70.8 µM [inhibitor, partial curve], COc1ccc(NCC(=O)N/N=C/c2c(C)nn(Cc3ccccc3)c2Cl)cc1 20 µM [inhibitor, full curve], O=C1c2ccccc2C(=O)N1CCCc1nc2ccccc2c(=O)n1CCCn1ccnc1 79.4 µM [inhibitor, partial curve], COc1ccc(S(=O)(=O)N(Cc2cccnc2)Cc2cc3ccccc3[nH]c2=O)cc1 22.4 µM [inhibitor, full curve], COc1ccc(C(=O)Cn2nnc(-c3ccc(N4CCOCC4)cc3)n2)cc1OC 100 µM [inhibitor, partial curve, poor fit], O=S1(=O)CC/C(=N\Nc2ccc(F)cc2)c2ccsc21 50.1 µM [inhibitor, partial curve], CCOC(=O)c1ccc(N=c2sc(C(=O)OC)cc(=O)n2Cc2ccco2)cc1 15.8 µM [inhibitor, single point], CC(C)(Oc1ccc(Cl)cc1)C(=O)NC1=NN(c2ccccc2)C(=O)C1 25.1 µM [inhibitor, single point], CN(C)c1ccc(NC(=O)c2sc(SCC(=O)Nc3nccs3)nc2N)cc1 56.2 µM [inhibitor, partial curve], c1ccc(-c2ccc(-n3ccnc3)cc2)cc1 56.2 µM [inhibitor, partial curve], N#Cc1nc(COc2ccc(Br)cc2)oc1N1CCCCCC1 12.6 µM [inhibitor, partial curve], CCCCN1C(=N)N([C@@H](CN2CCC[C@H]2CN2C(N)=NC[C@@H]2Cc2ccccc2)C(C)C)C[C@H]1Cc1ccccc1 70.8 µM [inhibitor, partial curve, poor fit], Cc1ccc(C(=O)NCc2ccc(N(C)C)cc2)cc1NC(=O)c1nsc2ccccc12 8.91 µM [inhibitor, full curve], Cc1oc2c(CN(C)C)c(O)ccc2c(=O)c1-c1cscn1 89.1 µM [inhibitor, single point], C/C(=N\Nc1ccc(C(=O)O)cc1)c1ccc2c(c1)Nc1ccccc1S2 44.7 µM [inhibitor, partial curve], CS(=O)(=O)OCCCCOS(C)(=O)=O 89.1 µM [inhibitor, single point], Cc1ccc(N2CCN(CC3CC=CCC3)CC2)cc1 (stereo not given) 50.1 µM [inhibitor, partial curve], O=C(/C=C/c1ccccc1Cl)Nc1ccc2c(c1)C(=O)NC2=O 63.1 µM [inhibitor, partial curve, poor fit], O=[N+]([O-])c1cc([N+](=O)[O-])c(Oc2cccnc2Br)cc1NN1CCCCC1 12.6 µM [inhibitor, full curve], O=C(NNc1nc2ccc(Cl)cc2s1)c1cc(-c2cccs2)nc2ccccc12 6.31 µM [inhibitor, full curve, poor fit], O=C(CC1C(=O)NCCN1Cc1cccc(F)c1)NCCCOc1cccnc1 (stereo not given) 15.8 µM [inhibitor, full curve], CCOC(=O)C1=C(CSc2nc(-c3ccncc3)ccc2C#N)OC(N)=C(C#N)C1c1ccc(OC)cc1 (stereo not given) 50.1 µM [inhibitor, partial curve], O=C(Nc1nc(-c2ccccc2)cs1)c1ccccc1NS(=O)(=O)c1ccc(F)cc1 70.8 µM [inhibitor, single point], CC1(C)Oc2ccc3ccc(=O)oc3c2/C(=C/Nc2ccccc2)C1=O 35.5 µM [inhibitor, partial curve], CCOC(=O)c1ccc(Nc2c(-c3ccc(O)c(OC)c3)nc3nc[nH]n23)cc1 89.1 µM [inhibitor, partial curve], COc1ccc(CNc2oc(-c3ccccc3)nc2C#N)cc1 44.7 µM [inhibitor, partial curve], Cc1ccnc(SCc2ccc(C(=O)O)cc2)n1 20 µM [inhibitor, full curve], O=c1ccc(NS(=O)(=O)c2ccc(Cl)cc2)cn1Cc1ccc(Cl)c(Cl)c1 50.1 µM [inhibitor, partial curve], Cc1ccc(C)c(OCC(O)CN2CCC(CN3C(=O)c4cccc5cccc(c45)C3=O)CC2)c1 (stereo not given) 12.6 µM [inhibitor, partial curve], COc1ccc(OC)c(NC(=O)CN(Cc2ccc(Cl)cc2)S(C)(=O)=O)c1 56.2 µM [inhibitor, partial curve], CCc1ccccc1N=C1S/C(=C/c2ccccc2OCC(=O)N2CCOCC2)C(=O)N1C 31.6 µM [inhibitor, single point], Cc1ccc(Nc2nc(-c3sc(NC(=O)c4ccco4)nc3C)cs2)cc1 56.2 µM [inhibitor, partial curve]

Potency, inactive:
O=C(N/N=C/c1ccc([N+](=O)[O-])o1)C1CCCC1, COc1ccc(CCNC(=O)c2cc(S(=O)(=O)N3CCCCCC3)ccc2OC)cc1OC, CCOC(=O)Cn1c(=O)n(CC2CCCO2)c2nc(-c3ccc(C(C)C)cc3)nc(C(N)=O)c21 (stereo not given), COC(=O)CN(C)C(=O)c1ccc2nc(Cc3cccc(Cl)c3)oc2c1, CCOc1cc(/C=C\[N+](=O)[O-])ccc1OCC(=O)N1CCOCC1, COCCCNC(=O)CN1C(=O)/C(=C\c2ccc(C)cc2)Sc2ccccc21, O=C(CSc1c2c(nc3ccc(Cl)cc13)CCCC2)N1CCN(c2cccc(Cl)c2)CC1, COc1ccc(CNC(=O)c2cnc3sc(N4CCCC4)nn3c2=O)cc1OC, Cc1ccc2c(c1)C(c1ccc(F)cc1)N(C(=O)COc1ccc(Cl)cc1Cl)CC(=O)N2 (stereo not given), CCCCN(CCCC)S(=O)(=O)c1ccc(C(=O)Nc2nnc(COC)o2)cc1, CCc1nnc(NC(=O)C(NC(=O)c2ccccc2Cl)C(C)C)s1 (stereo not given), O=C(Nc1ccccc1)C(Cc1ccccc1)c1ccccc1 (stereo not given), N#Cc1c(-c2ccccc2)nc(SCC(=O)NC2CCCCC2)[nH]c1=O, Cn1cnc2c(NCc3ccccc3)nc(Cl)nc21, CCOC(=O)c1sc(NC(=O)Nc2ccc(Cl)cc2)nc1C

Potency, active:
CC(CCN1CCN(c2ccccn2)CC1)c1ccccc1 (stereo not given) 25.1 µM, O=C(NN1C(=O)/C(=C/C=C/c2ccco2)SC1=S)c1ccccc1O 8.91 µM, N/C(=N\OS(=O)(=O)c1ccc2ccccc2c1)c1ccccn1 5.01 µM, O=c1c2cc3c(cc2[nH]c(=S)n1CCN1CCOCC1)OCO3 35.5 µM, CCSS(=O)(=O)c1cccc2cccnc12 1.12 µM, CCN(CCNC(=O)C1CCN(Cc2nc(-c3cccc(Cl)c3)oc2C)CC1)c1ccccc1 39.8 µM, CCc1ccc2nc(N(CCCN(C)C)C(=O)c3ccc(S(=O)(=O)N4CCCc5ccccc54)cc3)sc2c1 44.7 µM, O=C(NCC1CCCN1S(=O)(=O)c1ccccc1)C(=O)NC1CC1 (stereo not given) 35.5 µM, C=CCc1ccc(OCCCCN2CCC(C)CC2)c(OC)c1 2.82 µM, O=C1CCCC(O)=C1N=Nc1cccc(C(=O)O)c1 89.1 µM, COc1ccc(N)c2c1C(=O)c1ccccc1C2=O 44.7 µM, O=C(O)c1cc(N2CCCC2)ccn1 3.16 µM, Cc1ccnc2nc(C(=O)Nc3nc4ccccc4s3)nn12 15.8 µM

Activity change, negative = inhibition, inactive:
CC1=C(C(=O)Nc2ccccc2)C(c2ccc(N(C)C)cc2)NC(=O)N1 (stereo not given) -4.58% [at 11.4 µM]
